Source: PubChem BioAssay (NCI)
Where “and” joins values, the source holds several entries; their conditions need not be identical. Equal values may be shown once.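 Briefly, cells in 96-well plates were exposed to five compound concentrations for 48 h, and endpoints were estimated by linear interpolation. The concentration for 50% growth inhibition is given as GI50. TGI is the concentration that stops growth completely.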

Test system: NCI-H322M lung
Experiment: inhibition of tumour cell growth, NCI panel, 48 h

SMILES | TGI | GI50
Cc1nnc2n(c1=O)CCCN2C | > 100 µM | 
NCCN1CCCCCc2ccccc21 | > 10 µM | 
COC(=O)CCC(NC(=S)N/N=C/c1cccs1)C(=O)OC (stereo unspecified) | > 100 µM | 
COc1cc2nc(-c3ccc(Cl)cc3)cc(OCCCN3CCOCC3)c2cc1OC | > 100 µM | > 100 µM
CCCCCOc1ccc(/C=N/Nc2cc(C)nc3ccc(Cl)cc23)cc1 | 3.14 µM | 1.74 µM
O=C1/C(=C\c2ccccc2)CN(C(=O)CCN2CCCCC2)C/C1=C/c1ccccc1 | 7.64 µM | 
CCOC(=O)c1nc(C)oc1C(F)(F)F | > 100 µM | 
CCc1cccc(C)c1NC(=O)CCc1nc(=S)[nH][nH]1 | > 100 µM | 
COc1ccc(CNc2cnc3ccc(N)cc3n2)cc1 | > 100 µM | 
CN(/N=C1\C(=O)Nc2ccccc21)c1ccccc1 | > 100 µM | 
O=C(/C=C/c1ccc(O)c(O)c1)OCCc1ccc2ccccc2c1 | 24.1 µM | 
COc1ccc(C2Oc3ccc(Cl)cc3C=C2[N+](=O)[O-])cc1 (stereo unspecified) | > 100 µM | 
NNC(=O)C(=O)N/N=C1/CCCC1C(=O)CCC(=O)Nc1ccc(Cl)cc1 (stereo unspecified) | > 100 µM | 
OC1(c2ccc(Cl)c(C(F)(F)F)c2)CCN(CCCC(c2ccc(F)cc2)c2ccc(F)cc2)CC1 | 2.79 µM | 1.18 µM
COc1cc(/C=C2\C[C@H]3[C@@H]4CCc5cc(OCCN6CCCC6)ccc5[C@H]4CC[C@]3(C)C2=O)cc(OC)c1OC | 10.1 µM | 
CC(C)NC(=O)OCc1c(COC(=O)NC(C)C)n(C)c2c1ccc1sccc12 | > 65.4 µM | 
CN[C@@H](C)C(=O)N[C@H]1CN(S(=O)(=O)c2cccc(S(=O)(=O)N3CC[C@H]4CC[C@@H](C(=O)NC(c5ccccc5)c5ccccc5)N4C(=O)[C@@H](NC(=O)[C@H](C)NC)C3)c2)CC[C@H]2CC[C@@H](C(=O)NC(c3ccccc3)c3ccccc3)N2C1=O | 29.2 µM | 15.7 µM
O=C(ON=C1c2ccccc2C(Br)C(Br)c2ccccc21)c1ccccc1 (stereo unspecified) | 30 µM | 
O=C1c2cccc(Oc3ccccc3)c2C(=O)c2cccc(Oc3ccccc3)c21 | > 100 µM | > 100 µM
COc1ccc(OC)c(/C=C/c2nc(=S)n(-c3ccc(Cl)cc3)[nH]2)c1 | > 100 µM | 26.9 µM
Cc1c(N2CCOCC2)nc2ccc(Cl)cc2c1-c1ccccc1 | > 100 µM | 
O=C(Nc1cccc(-n2cc(-c3ccncc3)c(-c3cc(O)cc(Cl)c3)n2)c1)c1ccc(N2CCOCC2)c(C(F)(F)F)c1 | > 100 µM | 2.83 µM
Cc1ccc(S(=O)(=O)OCC/C(=C\[Si](C)(C)C)c2ccccc2)cc1 | > 100 µM | 
O=[N+]([O-])c1ccc(C[P+]2(c3ccccc3)CCCCC2)cc1 | > 100 µM | 

SMILES | TGI | GI50
CC1=NN(C(=O)Cc2ccccc2)C(=O)/C1=C\c1ccc(O)cc1 | > 100 µM | 
CN(C)c1nc(Oc2nc(N(C)C)nc(N(C)C)n2)nc(N(C)C)n1 | > 100 µM | 
CC(Br)C(=O)NC(CO)C(=O)O (stereo unspecified) | > 100 µM | 
CC(=O)Nc1nc(Cl)cc(NCC2(CO)CCC2)n1 | > 100 µM | 
O=C(NC1C(=O)NNC1c1cccc([N+](=O)[O-])c1)c1ccccc1 (stereo unspecified) | > 100 µM | 
COc1ccc2c(N)ncc(C#Cc3cc(C(=O)Nc4ccc(CN5CCN(C)CC5)c(C(F)(F)F)c4)cnc3C)c2c1 | 6.92 µM | 1.91 µM
Cc1cc(O)c2c(c1)C(=O)C=CC2=O | 35.5 µM and > 54.9 µM | 
c1ccc(C2=NC3OC2c2ccccc23)cc1 (stereo unspecified) | > 10 µM | 
COC(=O)/C=C(/C(=O)OC)C1(C)c2cc(C(=O)OC)c(C(=O)OC)c(N)c2C(=N)N1c1ccccc1 (stereo unspecified) | > 100 µM | 
COc1cccc(C2c3cc4c(cc3OC(O)C2C)OCO4)c1OC (stereo unspecified) | 46.6 µM | 
Cc1c2cccc-2c2cc(O)c3ccccc3c2n1-c1ccc(N(C)C)cc1 | 22.9 µM | 
O=c1cc(O)cc2n1CCC2 | > 100 µM | 
Cc1ccc(O)cc1Nc1ccnc2ccc(S(C)(=O)=O)cc12 | > 25 µM | 5.42 µM
O=c1oc2ccc3ccccc3c2cc1-c1cn2ccsc2n1 | > 100 µM | 
COc1cc2c(N3CCN(C(=O)Nc4ccc(OC(C)C)cc4)CC3)ncnc2cc1OCCCN1CCCCC1 | > 100 µM | 30.8 µM
COc1cc([C@@H]2c3cc4c(cc3[C@@H](NC(=O)c3ccc(C#N)cc3)C3COC(=O)[C@@H]32)OCO4)cc(OC)c1O (stereo partly specified) | 39.4 µM | 
O=c1c2c3c(sc2[nH]c(=S)n1-c1ccccc1)CCCc1ccc([N+](=O)[O-])cc1-3 | > 100 µM | 
CO/N=C1\CC(NC(=O)C(F)(F)F)c2ccsc21 (stereo unspecified) | > 100 µM | 
COc1cc(C)c(CC/C(C)=C/Cc2cc(O)ccc2O)c(C)c1C | > 25 µM | 
CSC1=Nc2c(c(C)c(C)n2COC(CO)CO)C2=NC(=O)CN12 | > 100 µM | > 100 µM
CCN1C(=S)N(CC)C2C1NC(=S)N2/N=C/C=C/c1ccccc1OC (stereo unspecified) | > 100 µM | 0.661 µM
CNCc1cccc2c1OCCOCCOCCN(C)S(=O)(=O)c1ccc(cc1)-c1cnc(N)c(n1)C(=O)N2 | 3.03 µM | 1.06 µM
Cn1nccc1Nc1nccc(-c2ccn([C@H](CO)c3ccc(Cl)c(F)c3)c(=O)c2)n1 | > 100 µM | 8.91 µM
